# Source: the supplement of paper PMC8728848
# Some of the results follow.
# Experiments:
# Assay in all cases: glycan array binding signal (z-score within array); higher = stronger binding
# Details in all cases: glycan notation: IUPAC condensed, linker removed
# [1] = target: Gal(b1-4)GlcNAc(b1-3)GalNAc
# Summary of the method: (§1)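 Negative Z-scores can be read as non-binding. The Z-score is calculated within each array and then averaged across arrays of one protein sequence at different concentrations or buffers and across linkers. Arrays, 3228 in all, were curated from the Consortium for Functional Glycomics database and kept only where the protein sequence was available.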
# [2] = target: Gal(b1-4)GlcNAc(b1-3)[Gal(b1-4)GlcNAc(b1-6)]GalNAc
# Summary of the method: as §1
# [3] = target: Gal(b1-4)GlcNAc(b1-6)Gal(b1-4)GlcNAc(b1-6)GalNAc
# Summary of the method: as §1
# [4] = target: Gal(b1-4)GlcNAc(b1-6)GalNAc
# Summary of the method: as §1
# [5] = target: Gal(b1-4)GlcNAc(b1-6)[Gal(b1-3)]GalNAc
# Summary of the method: as §1
# [6] = target: Gal3S(b1-3)GalNAc
# Summary of the method: as §1
# [7] = target: Gal3S(b1-3)GlcNAc
# Summary of the method: as §1
# [8] = target: Gal3S(b1-3)[Fuc(a1-4)]GlcNAc
# Summary of the method: as §1
# [9] = target: Gal3S(b1-4)Glc
# Summary of the method: as §1
# [10] = target: Gal3S(b1-4)Glc6S
# Summary of the method: as §1
# [11] = target: Gal3S(b1-4)GlcNAc
# Summary of the method: as §1
# [12] = target: Gal3S(b1-4)GlcNAc6S
# Summary of the method: as §1
# [13] = target: Gal3S6S(b1-4)GlcNAc
# Summary of the method: as §1
# [14] = target: Gal3S6S(b1-4)GlcNAc6S
# Summary of the method: as §1
# [15] = target: Gal4S(b1-4)GlcNAc
# Summary of the method: as §1
# [16] = target: Gal4S6S(b1-4)GlcNAc
# Summary of the method: as §1
# [17] = target: Gal6S(b1-4)Glc
# Summary of the method: as §1
# [18] = target: Gal6S(b1-4)Glc6S
# Summary of the method: as §1
# [19] = target: Gal6S(b1-4)GlcNAc
# Summary of the method: as §1
# [20] = target: GalNAc(a1-3)Gal
# Summary of the method: as §1
# [21] = target: GalNAc(a1-3)GalNAc
# Summary of the method: as §1
# [22] = target: GalNAc(b1-3)Gal(a1-4)Gal(b1-4)GlcNAc
# Summary of the method: as §1
# [23] = target: GalNAc(b1-3)GalNAc
# Summary of the method: as §1
# [24] = target: GalNAc(b1-4)GlcNAc
# Summary of the method: as §1
# [25] = target: Glc(a1-4)Glc
# Summary of the method: as §1
# [26] = target: Glc(a1-6)Glc(a1-6)Glc
# Summary of the method: as §1
# [27] = target: Glc(b1-4)Glc
# Summary of the method: as §1
# [28] = target: Glc(b1-6)Glc
# Summary of the method: as §1
# [29] = target: GlcA(b1-3)Gal
# Summary of the method: as §1
# [30] = target: GlcA(b1-6)Gal
# Summary of the method: as §1
# [31] = target: GlcNAc(a1-3)Gal(b1-4)GlcNAc
# Summary of the method: as §1
# [32] = target: GlcNAc(a1-6)Gal(b1-4)GlcNAc
# Summary of the method: as §1
# [33] = target: GlcNAc(b1-2)Gal(b1-3)GalNAc
# Summary of the method: as §1
# [34] = target: GlcNAc(b1-2)Man(a1-3)[GlcNAc(b1-2)Man(a1-6)]Man(b1-4)GlcNAc(b1-4)GlcNAc
# Summary of the method: as §1
# [35] = target: GlcNAc(b1-3)Gal
# Summary of the method: as §1
# [36] = target: GlcNAc(b1-3)Gal(b1-3)GalNAc
# Summary of the method: as §1
# [37] = target: GlcNAc(b1-3)Gal(b1-4)Glc
# Summary of the method: as §1
binder,measurement,setting,value
"F17fG (Escherichia coli), Q9RH91 (protein) MTNFYKVFLAVFILVCCNISHAAVSFIGSTENDVGPSQGSYSSTHAMDNLPFVYNTGHNIGYQNANVWRISGGFCVGLDGKVDLPVVGSLDGQSIYGLTEEVGLLIWMGDTNYSRGTAMSGNSWENVFSGWCVGNYVSTQGLSVHVRPVILKRNSSAQYSVQKTSIGSIRMRPYNGSSAGSVQTTVNFSLNPFTLNDTVTSCRLLTPSAVNVSLAAISAGQLPSSGDEVVAGTTSLKLQCDAGVTVWATLTDATTPSNRSDILTLTGASTATGVGLRIYKNTDSTPLKFGPDSPVKGNENQWQLSTGTETSPSVRLYVKYVNTGEGINPGTVNGISTFTFSYQ",glycan array binding signal (z-score),[1],-0.357
same,glycan array binding signal (z-score),[2],-0.37
same,glycan array binding signal (z-score),[3],-0.352
same,glycan array binding signal (z-score),[4],-0.328
same,glycan array binding signal (z-score),[5],-0.363
same,glycan array binding signal (z-score),[6],-0.179
same,glycan array binding signal (z-score),[7],-0.258
same,glycan array binding signal (z-score),[8],-0.253
same,glycan array binding signal (z-score),[9],-0.106
same,glycan array binding signal (z-score),[10],-0.146
same,glycan array binding signal (z-score),[11],-0.139
same,glycan array binding signal (z-score),[12],-0.038
same,glycan array binding signal (z-score),[13],0.156
same,glycan array binding signal (z-score),[14],0.243
same,glycan array binding signal (z-score),[15],-0.032
same,glycan array binding signal (z-score),[16],0.026
same,glycan array binding signal (z-score),[17],-0.277
same,glycan array binding signal (z-score),[18],-0.125
same,glycan array binding signal (z-score),[19],-0.127
same,glycan array binding signal (z-score),[20],-0.286
same,glycan array binding signal (z-score),[21],-0.34
same,glycan array binding signal (z-score),[22],-0.372
same,glycan array binding signal (z-score),[23],1.71
same,glycan array binding signal (z-score),[24],-0.327
same,glycan array binding signal (z-score),[25],-0.363
same,glycan array binding signal (z-score),[26],-0.362
same,glycan array binding signal (z-score),[27],-0.329
same,glycan array binding signal (z-score),[28],-0.088
same,glycan array binding signal (z-score),[29],-0.075
same,glycan array binding signal (z-score),[30],-0.209
same,glycan array binding signal (z-score),[31],-0.323
same,glycan array binding signal (z-score),[32],-0.364
same,glycan array binding signal (z-score),[33],-0.315
same,glycan array binding signal (z-score),[34],-0.238
same,glycan array binding signal (z-score),[35],5.09
same,glycan array binding signal (z-score),[36],5.89
same,glycan array binding signal (z-score),[37],4.83
